In ChEMBL document CHEMBL4888484, “Replenishing the malaria drug discovery pipeline: Screening and hit evaluation of the MMV Hit Generation Library 1 (HGL1) against asexual blood stage Plasmodium falciparum ,using a nano luciferase reporter read-out” (2022):
In all, about 150,000 compounds went through this assay and about 540 (0.36%) showed an effect of 50% or more. Some of the results follow.

tested on: Plasmodium falciparum; test: Primary screen in NF54 nanoGlo assay, in single point, at 2uM, 72h; a lower Z score goes with more inhibition; type: functional, Erythrocyte; details: timepoint 72 hour

Structure (SMILES) | % Inhibition [%] | Z score
Cc1noc(C)c1CN1C(=O)[C@@H]2CC[C@H]1CN(C(=O)N1CCCC1)C2 | -6 | 0.68
CCOc1ncccc1NC(=O)OCC(F)(F)F | -18 | 3.41
CCn1nc(C)c(CNC[C@H]2CN(C3CC3)CCO2)c1C | 11 | -1.94
CN(C(=O)OC(C)(C)C)C1CCN(C(=O)CC2C=CCC2)C1 (configuration not stated) | 0 | 0.09
Cc1cnn(CCn2cc(-c3cccc(Cn4cccn4)c3)nn2)c1 | -26 | 2.39
NC(=O)COc1ccc([C@H]2CC(=O)Nc3c2ncn3-c2cccnc2)cc1 | -6 | 0.74
COc1cccc(C(=O)N2CC[C@H](n3nccn3)C2)c1OC | 5 | -0.74
O=C(O)COc1ccccc1CN1CC(c2ccccn2)C1 | -2 | 0.31
Cc1cc(CS(=O)(=O)[C@@H](C)C(=O)N2CCc3ccccc32)no1 | -8 | 1.05
O=c1[nH]nc2n1CCN(Cc1cccc3ccccc13)C2 | -7 | 1.12
COc1cccc(CC(=O)N2CCC(c3nc(C)ccc3C(=O)N3CCN(C4CCCCC4)CC3)CC2)c1 | -6 | 0.81
O=C(NCc1ccc2c(c1)OCO2)c1csc(-c2ccnc(N3CCOCC3)c2)n1 | -4 | 0.75
COc1ccc(S(=O)(=O)N2CCOCC2)cc1NC(=O)c1ccc2c(c1)C(=O)N(c1ccccc1C)C2=O | -5 | 0.77
COc1ccccc1-n1c(N)c(-c2nc3ccccc3n2Cc2ccccc2)c2nc(C#N)c(C#N)nc21 | -1 | 0.11
Cc1cccc(S(=O)(=O)NCCC(N)=O)c1F | 2 | -0.28
Cc1nc(C(=O)NC[C@@H](c2ccco2)N2CCCC2)cs1 | -17 | 3.35
CCOc1ccc(-c2nc(C(N)=O)c3c(n2)n(-c2ccc(C)c(C)c2)c(=O)n3Cc2ccccc2)cc1 | -3 | 0.44
O=C1C2CCCCC2C(=O)N1CN1CCCCC1 (configuration not stated) | -1 | 0.15
Cc1ccccc1NC(=O)CC(=O)N(C)Cc1snnc1C | -4 | 0.53
c1cc2ccc(-c3noc(CC4CCOCC4)n3)cc2[nH]1 | -2 | 0.22
Cc1noc(CCCNC(=O)C(=O)Nc2cc(F)ccc2F)n1 | -7 | 1.36

Structure (SMILES) | % Inhibition [%] | Z score
CCCN(Cc1c(C)nn(-c2ccccc2)c1N1CCN(CC)CC1)S(=O)(=O)c1ccc(C)cc1 | 39 | -5.27
O=S(=O)(Nc1cnn([C@H]2CCOC2)c1)c1ccccc1 | 28 | -3.6
FC(F)(F)c1cccc(-n2ncnc2CCCn2cccn2)c1 | -4 | 0.44
O=C(C1CCC1)N1CCC[C@H]1c1nc2cc(-c3ccc(F)cc3F)ccc2o1 | -34 | 3.25
Cn1ncc(CN2CC[C@H](c3ccc(F)cc3)[C@@H](O)C2)c1C1CC1 | -10 | 1.79
COCC(=O)N1CCC[C@H]1C(=O)OC | -2 | 0.25
COC[C@H]1CCCN1C(=O)Cn1nc(C)c(C)c1C | -5 | 0.67
COc1ccc(CCNC(=O)CN2C(=O)c3cc4ccccc4cc3Oc3ncccc32)cc1 | -8 | 1.58
NC(=O)c1ccc(N2CC3CCCC3C2)nn1 (configuration not stated) | -9 | 1.06
COc1cc(-c2nc(C(=O)N(C)Cc3ccccc3)cs2)ccc1OCc1ccc(F)cc1 | -10 | 1.43
O=C(CC1CCCC1)NCc1cn(-c2cccs2)nn1 | 13 | -1.7
CC[C@@H]1CN(Cc2c(Cl)ccc(OC)c2F)CC[C@]1(C)O | -11 | 2.23
CCN1C[C@@H](C(=O)Nc2ccnn2-c2nc(C)cc(C)n2)CC1=O | -3 | 0.49
CC(=O)N1CCN(C2CN(CCOc3cccc(C)c3)CC2C)CC1 (configuration not stated) | 7 | -0.96
COc1ccccc1[C@H](C)NC(=O)N(CC(C)(C)O)C(C)C | -12 | 1.01
O=C(O)c1ccc2c(c1)NC(=O)c1ccccc1N2 | -14 | 1.57
COc1cccc(N2CCN(C3CCN([C@H]4CCCCC4=O)CC3)CC2)c1 | -8 | 1.07
CC(C)N(C)c1cnn([C@H]2CCCN(C(=O)C3(C)COC3)C2)c(=O)c1 | -7 | 1.04
COc1cccc2c1OC[C@@H](C(=O)N1CCc3ccccc3C1)C2 | -21 | 3.93
Cc1cccc(NS(=O)(=O)c2ccc3c(c2)CCN3)n1 | -29 | 3.38
